{"source": "the supplement of paper PMC8728848", "key": {"[1]": {"biological_target": "Neu5Gc(a2-8)Neu5Gc(a2-6)Gal(b1-4)GlcNAc", "test": "glycan array binding signal (z-score within array); higher = stronger binding", "conditions": "glycan notation: IUPAC condensed, linker removed", "how_it_was_run": "(§1)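 Glycan array binding is given as a within-array Z-score, which can be read as non-binding when negative. The arrays, 3228 of them, came from the Consortium for Functional Glycomics database and were retained only where the protein sequence was available. Z-scores were averaged across arrays of the same protein sequence at different concentrations or buffers and across linkers.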"}, "[2]": {"biological_target": "Neu5Gc(b2-6)Gal(b1-4)GlcNAc", "test": "glycan array binding signal (z-score within array); higher = stronger binding", "conditions": "glycan notation: IUPAC condensed, linker removed", "how_it_was_run": "as §1"}}, "note": "This is one part of the list.", "data": [{"binder": "PfulAvr4 (Pseudocercospora fuligena) (protein) HHHHHHDYKDDDDKTYVQDKTPAFVCPAADIKTTKCLGPKDCLYPSPKTCNGYIQCSPADDSYLTGIIHEMPCPSGLLWNDNKKWCDWPENTTCGLVKSAGATEVDATKQGPTPGKYHG", "values": [{"measurement": "glycan array binding signal (z-score)", "setting": "[1]", "result": -0.134}, {"measurement": "glycan array binding signal (z-score)", "setting": "[2]", "result": -0.053}]}]}
